Measured values: the RNAGym collection of RNA variant scans (doi:10.1101/gad.245936.114)
Variants at the floor of the assay are shown more often than the library holds them.

B1: tRNA (parent)
chain: CUCUCGGUAGCCAAGUUGGUUUAAGGCGCAAGACUUUAAUUUAUCACUACGAAAUCUUGAGAUCGGGCGUUCGACUCGCCCCCGGGAGAUUUUUUCCUCGAGCAA

Variants of: B1
Assay: nonsense suppression (GFP-seq) (ratio to wild type); higher = more function; SUP4oc tRNA, yeast GFP reporter sort-seq
Outline: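 Yeast carrying genome-integrated SUP4oc tRNA variants from a library with ~3% random mutations were grown in raffinose/galactose medium with 80 mg/L adenine. Each strain also carried a galactose-driven GFP ochre reporter and RFP. Cells were sorted into GFP/RFP bins, and each bin was Illumina-sequenced (phred ≥30). Nonsense suppression (GFPSEQ) is the bin median GFP/RFP, weighted by each variant's estimated cell share per bin, relative to wild-type SUP4oc; variants needed ≥100 reads and ≥30 cells.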

| Variant | nonsense suppression |
| --- | --- |
| C29G G32A G67U C75A | ≤ 0.026 |
| A30C C68U C82U | ≤ 0.026 |
| C29U A33U | 0.0316 |
| C29U A33G | ≤ 0.026 |
| C29G C75G U76A | ≤ 0.026 |
| A30G U35G U63G A89C | ≤ 0.026 |
| G28A A54U | 1.1 |
| A30G A62G | ≤ 0.026 |
| C29U U55C U76G G78C | ≤ 0.026 |
| G28A U57G C80U | ≤ 0.026 |
| A30C G69C C83G | ≤ 0.026 |
| C29U C83A G84U | ≤ 0.026 |
| G28A A31G G73C | ≤ 0.026 |
| C29U C83U | 0.0384 |
| A30G G65A G73U A74G A89C | ≤ 0.026 |
| A30G C82U | 0.0497 |
| A30C C34G U71G A74U | ≤ 0.026 |
| G28C U55A | ≤ 0.026 |
| C29U A33U G85A G86A | ≤ 0.026 |
| C29G C34G G69C | ≤ 0.026 |
| C29A C34U U55A G85C | ≤ 0.026 |
| A30G A54C U71A G86A | ≤ 0.026 |
| G28A C34G | ≤ 0.026 |
| A30U G78C G85C | ≤ 0.026 |

| Variant | nonsense suppression |
| --- | --- |
| G28U A30C A33G A54G U76C C79A | ≤ 0.026 |
| A30U C64U | ≤ 0.026 |
| C29U C56G U58C A60C U63A C72U G84C | ≤ 0.026 |
| A30U G73C | ≤ 0.026 |
| C29A G61U | ≤ 0.026 |
| C29G C79U C80G | ≤ 0.026 |
| G28U U55G | ≤ 0.026 |
| C29U U55A C79U G88A | ≤ 0.026 |
| A30C C68U C79G | ≤ 0.026 |
| G28U C29U A30G A31C C34U | ≤ 0.026 |
| C29G C34A A60C | ≤ 0.026 |
| G28A G84A G86C | ≤ 0.026 |
| C29U G66C C80A G88C | ≤ 0.026 |
| G28A G66U G78U G84U | ≤ 0.026 |
| A30U A62G | ≤ 0.026 |
| G28U C34A C77U | ≤ 0.026 |
| G28C A74C C81G | ≤ 0.026 |
| G28U C79A | ≤ 0.026 |
| G28U C79G | ≤ 0.026 |
| G28A A60C G78C G85C | ≤ 0.026 |
| A30C C72A A74G | ≤ 0.026 |
| G28A U55A | ≤ 0.026 |
| C29U G73U G88A | ≤ 0.026 |
| A30U C34U C75A | ≤ 0.026 |

| Variant | nonsense suppression |
| --- | --- |
| A30C G66A | ≤ 0.026 |
| C27U U71G G85C | ≤ 0.026 |
| G28U U71G G73U | ≤ 0.026 |
| C29U U57A G61C | ≤ 0.026 |
| A30U A54C | 0.0467 |
| C29A A74U | ≤ 0.026 |
| C29U U35C U58G C64U G66C | ≤ 0.026 |
| A30U U57C C72U | ≤ 0.026 |
| C29G G59A C80G | ≤ 0.026 |
| A30U C68G | ≤ 0.026 |
| G28A C29G A31U | ≤ 0.026 |
| G28U C34U | ≤ 0.026 |
| A30U G32U G67A U76A C79U | ≤ 0.026 |
| C29G C75U U76A | ≤ 0.026 |
| G28A U63C G85U | 0.0331 |
| A30G C56A G61C C81U | ≤ 0.026 |
| A30G G69A A89U | ≤ 0.026 |
| A30G G67A A74C | ≤ 0.026 |
| A30G A31C G65A C81G A89G | ≤ 0.026 |
| A30C U58G | 1.02 |
| G28U A31C G65C | ≤ 0.026 |
| G28U C29G | ≤ 0.026 |
| A31C A33G U76A | ≤ 0.026 |
| A30U U63A | 0.157 |

| Variant | nonsense suppression |
| --- | --- |
| A30G G61A G65C C72G C81A | ≤ 0.026 |
| A30G C34A | ≤ 0.026 |
| C29A C56G U70C G78A C81A | ≤ 0.026 |
| A30G G88A | ≤ 0.026 |
| G28C A33U C82U A89U | ≤ 0.026 |
| C29U U35C G78C A89G | ≤ 0.026 |
| A30C G85U | ≤ 0.026 |
| A30C G85A | ≤ 0.026 |
| G28A C56A | ≤ 0.026 |
| C27U U57C G73C | ≤ 0.026 |
| A30G U35G G84U A87U | ≤ 0.026 |
| G28U A54U C68A C72U C75U | ≤ 0.026 |
| G28C | 1.17 |
| G28A | 0.975 |
| G28U | ≤ 0.026 |
| C29A A60C | ≤ 0.026 |
| C29A A60G | 0.0331 |
| G28A U57A G69C | ≤ 0.026 |
| G28C G78U | ≤ 0.026 |
| C29G U71C C79G | ≤ 0.026 |
| C29A U57A G66C G86U | ≤ 0.026 |
| C29A C68G | ≤ 0.026 |
| G28C A33U | ≤ 0.026 |
| C29G U55A G61C | ≤ 0.026 |

| Variant | nonsense suppression |
| --- | --- |
| C29U G73A | 0.238 |
| A30G G85C | ≤ 0.026 |
| A30G G85A | 0.793 |
| C29U A30G G65C U71C | ≤ 0.026 |
| A30U U58A | 0.89 |
| C29G U70C C80U | ≤ 0.026 |
| C29G U57G | ≤ 0.026 |
| C29U U57C | ≤ 0.026 |
| C29U U57G | ≤ 0.026 |
| C29G G78A | ≤ 0.026 |
| A30U A33U G88A | ≤ 0.026 |
| C29U G32C U55C C64G | ≤ 0.026 |
| G28C U58A G61U G84U | ≤ 0.026 |
| C29U A87U | ≤ 0.026 |
| C29G G61U A89C | ≤ 0.026 |
| C29G C82A G86A | ≤ 0.026 |
| A30C G32A U76G | ≤ 0.026 |
| A30G G86C | ≤ 0.026 |
| C29G A30C | ≤ 0.026 |
| C29G U57G C83A | ≤ 0.026 |
| C29A A62U U71C U76A C79G | ≤ 0.026 |
| G28A U57G C79U | ≤ 0.026 |
| C29G C82A | ≤ 0.026 |
| C29U U35G U76C | ≤ 0.026 |

| Variant | nonsense suppression |
| --- | --- |
| C29A G88A | ≤ 0.026 |
| C29U G59C G61C | ≤ 0.026 |
| C29G U55C G88A | ≤ 0.026 |
| C29U C72G A74C | ≤ 0.026 |
| C27U U71A | ≤ 0.026 |
| C27U U71G | ≤ 0.026 |
| C29U G61C | 0.0261 |
| C29U G61U | 0.754 |
| C29U A89U | ≤ 0.026 |
| A30U A60U | 0.769 |
| A30U A60G | 0.27 |
| A30U U76C | ≤ 0.026 |
| C29U A33G G61U C80U | ≤ 0.026 |
| C29U A54G | ≤ 0.026 |
| C29U A54C | ≤ 0.026 |
| A30G G32U U63C C64G | ≤ 0.026 |
| G28U A74G | ≤ 0.026 |
| A30C C79A A87U | ≤ 0.026 |
| C29A U35G C56A U71A | ≤ 0.026 |
| C29U G66C G88C | ≤ 0.026 |
| A30G U70C | ≤ 0.026 |
| G28C A31G C34A C68A | ≤ 0.026 |
| C29A C56U | ≤ 0.026 |
| C29A C56A | ≤ 0.026 |

| Variant | nonsense suppression |
| --- | --- |
| C29A G67A C77G | ≤ 0.026 |
| C29U A54C U55C C56A G84C | ≤ 0.026 |
| G28C U63G C72G | ≤ 0.026 |
| C29U G65U A87G | ≤ 0.026 |
| G28A A89G | ≤ 0.026 |
| C29A U71A | ≤ 0.026 |
| G28U G32U | ≤ 0.026 |
| A30C C79A | ≤ 0.026 |
| A30G C80U C83G | ≤ 0.026 |
| C29G A31C U35G | ≤ 0.026 |
| A31C A54G | ≤ 0.026 |
| A30G A62C G88A | ≤ 0.026 |
| C29A G32A C56U U63C | ≤ 0.026 |
| A30U G32U C56A U58G | 1.11 |
| G28A U35G G67A G84C G88U | ≤ 0.026 |
| C29A A33G U57C G65A | ≤ 0.026 |
| A30U A60U C68U | 0.0354 |
| G28U A33U | ≤ 0.026 |
| A30U G65C | ≤ 0.026 |
| A30C U55C C75G C82G | ≤ 0.026 |
| G28A C34G G78A | ≤ 0.026 |
| C29G A54U | ≤ 0.026 |
| A30G A62G C68U | ≤ 0.026 |
